Measurements: PubChem BioAssay AID485294 (National Center for Advancing Translational Sciences (NCATS), 2010)
In all, about 370,000 compounds went through this assay and about 150 (0.041%) were called active. The shares of active, inactive and inconclusive entries below differ from those in the screen. Calls follow the shape of the dose curve; as a rule, active = well fitted inhibition curve with a large enough effect; inconclusive = small, poorly fitted or top-dose-only effect; inactive = flat fitted curve, though single readings scatter. No potency is given beside an inconclusive call; the fits are too rough.

Target: Beta-lactamase (Escherichia coli (strain K12)) (UniProt P00811)
Chain of UniProt P00811 (P00811 whole entry, looked up): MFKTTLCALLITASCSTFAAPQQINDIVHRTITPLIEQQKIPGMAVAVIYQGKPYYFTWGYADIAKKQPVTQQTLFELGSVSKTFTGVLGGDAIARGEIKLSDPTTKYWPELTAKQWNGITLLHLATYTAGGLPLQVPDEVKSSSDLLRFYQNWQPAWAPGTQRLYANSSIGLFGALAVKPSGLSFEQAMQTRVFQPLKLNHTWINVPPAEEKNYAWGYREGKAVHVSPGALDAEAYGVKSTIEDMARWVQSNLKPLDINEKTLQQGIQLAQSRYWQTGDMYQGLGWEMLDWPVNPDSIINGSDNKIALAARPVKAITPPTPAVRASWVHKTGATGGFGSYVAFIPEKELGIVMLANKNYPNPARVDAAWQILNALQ
Assay: qHTS Inhibitors of AmpC Beta-Lactamase (assay with detergent); also: nearly all actives have a fitted effect of over 25% in size;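 as to activity change, negative = inhibition: 0% = no-compound wells and -100% = no-enzyme wells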
Details: AmpC hydrolysis of nitrocefin, absorbance 480 nm, 0.01% Triton; activity change, negative = inhibition: at 114 µM (top of the series)
How it was run: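 20 mM phosphate pH 7.0 + 0.01% (detergent screen) or 0.0001% Triton X-100; 5.3 nM AmpC reagent; cpd preinc 15 min RT; nitrocefin (800 uM stock) to start; A480 q20 s × 4 min; Activity was normalised to no-enzyme and no-compound control wells.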
Potency is read from the fitted curve at half-maximal effect; tags tell the direction and shape of the fitted curve.

| Structure (SMILES) | Potency | activity change, negative = inhibition |
| --- | --- | --- |
| C=CCn1cccc(C(=O)Nc2cc(OC)ccc2OC)c1=O | inconclusive [inhibitor, full curve] | – |
| Cc1ccc2nc(-c3ccc(SCC(=O)Nc4nnc(C)s4)nc3)[nH]c2c1 | – | inactive: -5.85% |
| CC(=O)NCCc1ccc(S(=O)(=O)N2CCOCC2)cc1 | inconclusive [inhibitor, single point] | – |
| O=C(NC1=NCCS1)c1ccc(Br)s1 | inconclusive [inhibitor, full curve, poor fit] | – |
| CC1(C)CC(=O)C(C(C2=C(O)CC(C)(C)CC2=O)c2ccc(Cl)c([N+](=O)[O-])c2)C(=O)C1 (stereo not given) | inconclusive [inhibitor, single point] | – |
| CCc1ccccc1NC(=O)c1ccccc1Sc1ccc([N+](=O)[O-])cc1Cl | – | inactive: -18.9% |
| NC(=O)CN1CCCC1=O | inconclusive [inhibitor, full curve] | – |
| COc1ccc(C2(CNC(=O)c3cccc([N+](=O)[O-])c3)CCOCC2)cc1OC | inconclusive [inhibitor, partial curve] | – |
| Cc1cccc(Nc2ncnc3onc(-c4ccc(F)cc4)c23)c1C | inconclusive [inhibitor, full curve, poor fit] | – |
| CCOC(=O)c1c(NC(=O)c2cc(-c3ccc(O)cc3)on2)sc(C(C)=O)c1C | inconclusive [inhibitor, partial curve, poor fit] | – |
| CC(C)OC(=O)CN1C(=O)c2ccccc2C1=O | inconclusive [inhibitor, full curve] | – |
| CCOC(=O)c1ccccc1NC(=O)Cn1c(=O)n(-c2cccc(C)c2)c(=O)c2c1c1cc(C)ccc1n2C | – | inactive: -0.668% |
| Cc1sc2ncnc(N3CCC(C(=O)Nc4ccccc4C(C)(C)C)CC3)c2c1C | inconclusive [inhibitor, partial curve, poor fit] | – |
| CN1CCN(c2ccc([N+](=O)[O-])c3cccnc23)CC1 | inconclusive [inhibitor, partial curve, poor fit] | – |
| Cc1cc(C(=O)NC(=S)Nc2cccc(NC(=O)C(C)C)c2)ccc1[N+](=O)[O-] | inconclusive [inhibitor, full curve] | – |
| O=S(=O)(c1ccc(Br)cc1)N1CCN(c2ccc3nnc(-c4ccccc4)n3n2)CC1 | inconclusive [inhibitor, partial curve, poor fit] | – |
| Cc1ccc(N=C2NC(=O)/C(=C/c3cccs3)S2)cc1C | inconclusive [inhibitor, single point] | – |
| O=C(CSc1nnc(-c2ccc(F)cc2)o1)c1ccc2c(c1)OCCO2 | inconclusive [inhibitor, full curve, poor fit] | – |
| C(=N\n1cnnc1)/c1cccn1-c1ccccc1 | inconclusive [inhibitor, full curve, poor fit] | – |
| Cn1cc(S(=O)(=O)Cc2ccc(F)cc2)c2ccccc21 | inconclusive [inhibitor, full curve, poor fit] | – |

| Structure (SMILES) | Potency | activity change, negative = inhibition |
| --- | --- | --- |
| Cc1ccc(N(CC(O)CN2CCOCC2)S(=O)(=O)c2ccc([N+](=O)[O-])cc2)cc1 (stereo not given) | inconclusive [inhibitor, partial curve] | – |
| O=C(Cc1ccc(-n2cnnn2)cc1)NC12CC3CC(CC(C3)C1)C2 | inconclusive [inhibitor, full curve, poor fit] | – |
| O=C(Nc1ccc(S(=O)(=O)NCC2CCCO2)cc1)c1ccc(Cl)cc1[N+](=O)[O-] (stereo not given) | – | inactive: -0.888% |
| CSc1ccccc1NC(=O)c1ccco1 | inconclusive [inhibitor, partial curve, poor fit] | – |
| CC(C)c1ccc(NC(=O)C2CC(=O)Nc3nc4ccccc4n32)cc1 (stereo not given) | inconclusive [inhibitor, full curve, poor fit] | – |
| COc1c(F)c(F)c(C(=O)Nc2ccc(-c3nc4ccccc4[nH]3)cc2)c(F)c1F | inconclusive [inhibitor, full curve, poor fit] | – |
| Cc1cc(C)c(S(=O)(=O)N2CCCCC2)cc1N(C)S(=O)(=O)c1ccc(Cl)cc1 | – | inactive: -3.62% |
| COC(=O)c1c(NC(=O)c2ccoc2C)sc(C)c1C | inconclusive [inhibitor, single point] | – |
| COC(=O)c1cccnc1-n1c(=O)c2cccnc2n(CC(=O)Nc2ccccc2F)c1=O | inconclusive [inhibitor, partial curve] | – |
| Cc1cc(OCC(=O)NCCN2CCOCC2)cc(C)c1Cl | inconclusive [inhibitor, full curve, poor fit] | – |
| O=C(CSc1nncn2c1cc1sccc12)Nc1ccc(Br)cc1F | – | inactive: 14.9% |
| CC1CCCC(NC(=O)COC(=O)c2ccccc2NC(=O)c2ccco2)C1C (stereo not given) | inconclusive [inhibitor, full curve, poor fit] | – |
| CCOc1ccc(C(C)(C)C)cc1S(=O)(=O)N1CC(C)OC(C)C1 (stereo not given) | inconclusive [inhibitor, full curve] | – |
| COc1ccc(OC)c(NCc2nnc(-c3ccccc3)o2)c1 | inconclusive [inhibitor, full curve, poor fit] | – |
| Cc1cc(NC(=O)CSc2nnc(Cn3c(=O)sc4ccccc43)n2-c2ccccc2C)no1 | inconclusive [inhibitor, full curve, poor fit] | – |
| NS(=O)(=O)c1ccc(NC(=O)C2CCCO2)cc1 (stereo not given) | inconclusive [inhibitor, full curve, poor fit] | – |
| COc1cccc(NC(=O)CSCc2n[nH]c(=O)[nH]2)c1 | inconclusive [inhibitor, single point] | – |
| CCC1COC(c2cccn2Cc2ccccc2Cl)=N1 (stereo not given) | – | inactive: -3.44% |
| CCOC(=O)C1CCCN(C(=O)c2cccc([N+](=O)[O-])c2C)C1 (stereo not given) | inconclusive [inhibitor, partial curve] | – |
| COc1ccc([C@]23Cc4cc(C#N)ccc4C(O2)c2c(c4ccc(OC)cc4oc2=O)O3)cc1 | inconclusive [inhibitor, single point] | – |
